# Where “and” joins values, the source holds several entries; their conditions need not be identical. Equal values may be shown once. Out of some 420,000 compounds screened, about 64,000 (15%) were called active. The inconclusive results got no clear call from the source; some entries with a clear call stand among them for comparison. Calls follow the shape of the dose curve; as a rule, active = well fitted inhibition curve with a large enough effect; inconclusive = small, poorly fitted or top-dose-only effect; inactive = flat fitted curve, though single readings scatter. No potency is given beside an inconclusive call; the fits are too rough.
# Assay: qHTS for Inhibitors of human tyrosyl-DNA phosphodiesterase 1 (TDP1): qHTS in cells in absence of CPT; also: nearly all actives have a fitted effect of over 55% in size
# Conditions: DT40 Tdp1-/- hTDP1 cells, no CPT, ATP luminescence, 48 h; activity change, negative = growth inhibition: at 46.2 µM (top of the series) unless noted
# How it was run: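 DT40 Tdp1-/-;hTDP1 cells, no CPT (DMSO vehicle only), 400 cells/well; compounds pin-transferred; ≥48 hr, 37 °C; CellTiter-Glo 30 min RT dark, luminescence read.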
# % is scaled to controls: 0 for no effect and ±100 for the full control effect; potency is read from the fitted curve at half-maximal effect; tags tell the direction and shape of the fitted curve.
SMILES,Potency,"activity change, negative = growth inhibition"
O=C(CSc1nc2ccsc2c(=O)n1NC(=O)c1ccccc1)Nc1nccs1,inactive,–
CC(=O)c1ccc(S(=O)(=O)NCCc2cn3ccc(C)cc3n2)cc1,inactive,–
COc1ccc(-c2[nH]c(-c3cccc(OC)c3)nc2SCC(=O)Nc2ccc3c(c2)OCO3)cc1,"inconclusive [inhibitor, single point]",–
Nc1ccn(CCCN2CCN(Cc3cccc4ccccc34)CC2)c(=O)n1,"inconclusive [inhibitor, partial curve, poor fit]",–
CCCCOc1cccc(C(=O)N(Cc2ccccc2)C2CCS(=O)(=O)C2)c1 (centres undefined),active: 14.6 µM,–
COc1ccc(C(=O)Nc2ccccc2C(=O)N2CCOCC2)cc1,inactive,–
O=C(c1cc2c(ccc3ccccc32)o1)N1CCCCC1,"inconclusive [inhibitor, single point]",–
Cn1cccc1/C=N/NC(=O)c1ccccn1,"inconclusive [inhibitor, single point]",–
COc1cc(NS(=O)(=O)c2ccc(NC(=S)NC(=O)/C=C/c3ccco3)cc2)ncn1,inactive,–
CCC(C)(C)n1nnnc1C(c1ccccc1F)N1CCC(C(N)=O)CC1 (centres undefined),inactive,–
COc1ccccc1C1CCCN1Cc1nc(-c2cc3c(cc2Cl)OCO3)oc1C (centres undefined),"inconclusive [inhibitor, single point]",–
CCn1c(=O)c2cc(C(=O)NCCOC)sc2c2ccccc21,"inconclusive [inhibitor, single point]",–
COC(=O)c1ccc(CSc2nncn2C)cc1,inactive,–
Cc1ccc(C(=O)NC(C#N)=C(Cl)Cl)cc1,active: 2.31 µM,–
CCCCCN1C(C(=O)c2ccccc2)=C(NC(=O)c2ccc(OC)cc2)c2ccccc2S1(=O)=O,active: 23.1 µM,–
COc1ccc(CN(C(=O)c2snc(C(N)=O)c2N)C(C(=O)NC2CCCC2)c2cc(OC)ccc2OC)cc1 (centres undefined),"inconclusive [inhibitor, partial curve]",–
Cc1ccc(CNC(=O)CCC2CCCN(Cc3cc4ccccc4o3)C2)o1 (centres undefined),"inconclusive [inhibitor, single point]",–
CCc1noc(C)c1C(=O)OC(C)C(=O)Nc1ccccc1OC (centres undefined),inactive,–
COc1ccc(NC(=O)c2ccc(-c3nc(CSc4ccc(C)cc4)c(C)o3)cc2)cc1Cl,"inconclusive [inhibitor, partial curve, poor fit]",–
COCCNc1ncnc2ccc(-c3ccccc3C(F)(F)F)cc12,active: 20.6 µM,–
CCN(c1cccc(C)c1)S(=O)(=O)c1ccc(N2CCCCS2(=O)=O)cc1,active: 23.1 µM,–
CN(CC(=O)Nc1ccc(Br)cc1)Cc1ccccc1,inactive,–
COc1ccccc1C(=O)Oc1c(Sc2ccccc2)c(C)nn1C(C)(C)C,active: 14.6 µM,–
c1ccc(-c2ccc(-c3nc(-c4ccncc4)no3)cc2)cc1,"inconclusive [inhibitor, partial curve]",–
Cc1ccc(NC(=O)c2cc(S(=O)(=O)N(C)C3CCCCC3)ccc2F)cc1C,active: 18.4 µM,–

SMILES,Potency,"activity change, negative = growth inhibition"
O=C(Nc1ccc(-c2noc(COc3ccccc3Cl)n2)cc1)c1ccco1,"inconclusive [inhibitor, partial curve]",–
O=[N+]([O-])c1ccc(/C=N/N2CCCCC2)cc1,"inconclusive [inhibitor, partial curve]",–
COc1ccc(-c2cc(CCCC(=O)NCc3ccccn3)no2)cc1,active: 16.4 µM,–
COc1ccccc1Oc1c(C)oc2c(CN(C)C)c(O)ccc2c1=O,inactive,–
COc1ccc(CN2CC[C@H]3C=CC[C@@H](C(=O)NC4CCCCC4)[C@H]3C2=O)cc1OC,inactive,–
CCc1nnc(NC(=O)c2nc(S(=O)(=O)Cc3ccc(C)cc3)ncc2Cl)s1,active: 7.31 µM and active: 20.6 µM,–
O=C(NNC(=O)C12CC3CC(CC(Cl)(C3)C1)C2)c1ccncc1,inactive,–
COc1ccc(-n2cnnc2SCc2ncc(-c3ccccc3)o2)cc1,inactive,–
COc1ccc(NC(=O)c2cccc(NC(=O)c3ccco3)c2)c(OC)c1,"inconclusive [inhibitor, single point]",–
CC(C)CNS(=O)(=O)c1ccc(CCC(=O)N2CCN(Cc3ccc4c(c3)OCO4)CC2)cc1,active: 18.4 µM,–
C=C(c1ccc2ccccc2n1)c1cccs1,active: 14.1 µM,–
CN(Cc1ccccc1)C(=S)NC(=O)c1ccc(-c2ccccc2)cc1,active: 4.61 µM,–
CCn1c2ccccc2c2cc(NC(=O)c3cccc([N+](=O)[O-])c3)ccc21,active: 20.6 µM,–
COc1cc(C2C(C#N)=C(N)N(Nc3ccccc3)C3=C2C(=O)CC(C)(C)C3)ccc1OCc1ccccc1 (centres undefined),active: 20.6 µM,–
CCC(=O)N1CCc2cc(S(=O)(=O)NC(C(=O)NCCc3ccccc3)C(C)C)ccc21 (centres undefined),–,inconclusive: -30.3% [inhibitor]
CCOC(=O)C1CCCN(C(=O)c2ccccc2OC(F)(F)F)CC1 (centres undefined),inactive,–
Cc1cc(C)c(NC(=O)C(C)n2c(=O)c(C(F)(F)F)nc3ccccc32)c(C)c1 (centres undefined),"inconclusive [inhibitor, single point]",–
O=C(CCNC(=O)c1ccccc1Cl)Nc1nc2ccc(F)cc2s1,"inconclusive [inhibitor, single point]",–
CC(O)CSc1nc2c(c(=O)[nH]c(=O)n2C)n1Cc1ccccc1 (centres undefined),inactive,–
S=c1[nH]nc(C2CCCCC2)n1/N=C/c1ccccc1Cl,"inconclusive [inhibitor, single point]",–
S=C(NCc1ccncc1)NC1CCCCC1,"inconclusive [inhibitor, single point]",–
CCOc1nc(Nc2cc(Cl)ccc2OC)nc(OCC)n1,"inconclusive [inhibitor, single point]",–
CCOC(=O)c1coc(CNC(=O)c2c(C)oc3c2CCCC3)c1,"inconclusive [inhibitor, single point]",–
CCOC(=O)C1CCCN(C(=O)c2cc3nc(-c4ccc5c(c4)OCO5)cc(C(F)(F)F)n3n2)C1 (centres undefined),"inconclusive [inhibitor, single point]",–
NC(=O)C1(Nc2ccc(-c3ccccc3)cc2)CCCC1,inactive,–

SMILES,Potency,"activity change, negative = growth inhibition"
COc1cccc2c1N1C(=O)c3c(C(=O)O)cccc3C1CC2(C)C (centres undefined),inactive,–
COc1ccc(-n2nc(C(=O)NCC(=O)N3CCN(c4ccccc4)CC3)c3ccccc3c2=O)c(OC)c1,"inconclusive [inhibitor, partial curve]",–
Cc1ccc(C)c(NC(=S)c2nc3ccccc3s2)c1,"inconclusive [inhibitor, single point]",–
Nc1nc(SCC(=O)N2CCN(S(=O)(=O)c3ccc(Cl)cc3)CC2)n[nH]1,inactive,–
COC(=O)c1cccc(CN2C(=O)C(C)Sc3ccc(C#N)cc32)c1 (centres undefined),"inconclusive [inhibitor, single point]",–
CCOC(=O)CC(NC(=O)CCc1c(C)nc2c(c(C)nn2-c2ccc(C)c(C)c2)c1C)c1ccc(C)cc1 (centres undefined),"inconclusive [inhibitor, single point]",–
COc1cc(S(=O)(=O)NCCOC23CC4CC(CC(C4)C2)C3)c(OC)cc1Cl,active: 10.3 µM,–
N#Cc1c(/N=C/c2ccc(Br)s2)sc2c1CCC2,"inconclusive [inhibitor, partial curve, poor fit]",–
Cc1ccc(CNC(=O)CC2(CC3=NS(=O)(=O)c4ccccc4N3)CCCC2)cc1,"inconclusive [inhibitor, partial curve, poor fit]",–
COc1ccccc1C/C(N)=N/OC(=O)c1cccc([N+](=O)[O-])c1,"inconclusive [inhibitor, partial curve]",–
O=C(CCNC(=O)c1ccc(Br)cc1)Nc1ccccc1N1CCCC1,"inconclusive [inhibitor, single point]",–
COc1ccc(C(=O)OCC(=O)NC2CC2)cc1S(=O)(=O)Nc1ccc(C)cc1,inactive,–
Cc1cccc(C(=O)Nc2sc3c(c2C(=O)N2CCCCC2)CCC(C)C3)c1 (centres undefined),"inconclusive [inhibitor, single point]",–
Cc1cc(Br)ccc1NC(=O)CN(C)Cc1cccs1,–,inconclusive: -32.2% [inhibitor]
COc1cc2c(cc1OC)[C@@H](NC(=O)CCc1ccccc1)[C@H](OCc1ccccc1)C2,"inconclusive [inhibitor, single point]",–
CCC(C)(C)NC(=O)C(c1ccccn1)N(C(=O)c1csnn1)c1ccccc1 (centres undefined),inactive,–
Cc1noc(C)c1COc1cccc(C(=O)OC(C)C(=O)Nc2ccc3c(c2)OCO3)c1 (centres undefined),active: 0.82 µM,–
COc1cccc(NC(=O)CN2C(=O)C(=O)N(C3CCCC3)C2=O)c1,inactive,–
COc1ccc(C(CC(=O)N2CCOCC2)c2c(OC)cc(OC)c3c(-c4ccccc4)cc(=O)oc23)cc1 (centres undefined),"inconclusive [inhibitor, single point]",–
Cc1ccc(C(=O)NC2CCN(C(=O)N3CCOCC3)CC2)cc1,inactive,–
CCN(CC)CC#CCOC(=O)C(O)(c1ccccc1)C1CCCCC1 (centres undefined),active: 8.2 µM,–
O=C(COC(=O)CCc1ccc(S(=O)(=O)N2CCOCC2)cc1)Nc1cccc(Cl)c1,inactive,–
COc1ccccc1N(CC(=O)NCCSCc1ccc(C)cc1)S(=O)(=O)c1ccccc1,"inconclusive [inhibitor, single point]",–
CCOC(=O)C1CCN(C(=O)c2ccccc2)c2scc(-c3ccccc3)c2C1=O (centres undefined),"inconclusive [inhibitor, single point]",–

# Source: PubChem BioAssay AID686978 (National Center for Advancing Translational Sciences (NCATS), 2013)
